SMILES strings stand for the structures. Out of some 310,000 compounds screened, about 2,200 (0.71%) showed an effect of 50% or more. The effect is printed as a negative number. The list shows a part of the results.

The assay deals with human ether-à-go-go-related gene (hERG) potassium channel (human, UniProt Q12809). Briefly: primary screen, population patch clamp on CHO cells stably expressing hERG.
Sequence of human ether-à-go-go-related gene (hERG) potassium channel (Q12809 whole entry, looked up): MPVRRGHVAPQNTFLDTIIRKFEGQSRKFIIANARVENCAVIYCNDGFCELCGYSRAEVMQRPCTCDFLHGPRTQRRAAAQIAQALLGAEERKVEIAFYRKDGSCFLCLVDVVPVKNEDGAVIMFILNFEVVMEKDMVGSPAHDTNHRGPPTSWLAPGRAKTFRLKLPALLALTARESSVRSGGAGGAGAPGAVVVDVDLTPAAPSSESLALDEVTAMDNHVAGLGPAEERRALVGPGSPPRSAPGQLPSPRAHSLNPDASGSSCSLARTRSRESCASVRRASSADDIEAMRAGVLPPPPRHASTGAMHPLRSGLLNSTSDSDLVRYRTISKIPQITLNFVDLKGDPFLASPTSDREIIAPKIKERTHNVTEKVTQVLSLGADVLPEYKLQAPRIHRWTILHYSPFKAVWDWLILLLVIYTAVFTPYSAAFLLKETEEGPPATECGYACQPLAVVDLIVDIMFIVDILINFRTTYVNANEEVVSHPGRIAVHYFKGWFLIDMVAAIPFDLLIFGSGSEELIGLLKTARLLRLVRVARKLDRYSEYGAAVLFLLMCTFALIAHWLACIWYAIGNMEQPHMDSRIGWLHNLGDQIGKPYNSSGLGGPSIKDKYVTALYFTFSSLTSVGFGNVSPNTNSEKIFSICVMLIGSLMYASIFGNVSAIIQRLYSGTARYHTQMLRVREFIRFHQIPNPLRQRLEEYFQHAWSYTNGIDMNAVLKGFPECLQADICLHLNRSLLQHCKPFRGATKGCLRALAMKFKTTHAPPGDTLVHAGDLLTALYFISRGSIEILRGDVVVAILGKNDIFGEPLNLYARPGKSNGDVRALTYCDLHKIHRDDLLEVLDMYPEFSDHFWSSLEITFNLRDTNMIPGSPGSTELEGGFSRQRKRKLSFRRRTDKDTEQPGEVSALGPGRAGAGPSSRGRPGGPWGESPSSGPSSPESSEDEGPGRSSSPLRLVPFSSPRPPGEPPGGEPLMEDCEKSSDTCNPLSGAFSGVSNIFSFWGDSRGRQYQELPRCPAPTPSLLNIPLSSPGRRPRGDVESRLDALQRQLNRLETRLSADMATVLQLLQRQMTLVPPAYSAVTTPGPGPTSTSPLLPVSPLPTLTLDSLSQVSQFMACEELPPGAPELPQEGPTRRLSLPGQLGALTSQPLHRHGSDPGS
In the case of `Cc1nc2c(C(=O)N3CCOCC3)cnn2c(C)c1Cc1cccc(Cl)c1`, the “hERG current change (%, negative = inhibition) at 1uM” value is recorded as -7.36%.

Consider `Cc1csc(NC(=O)C2CCCN(S(=O)(=O)c3cccnc3)C2)n1` (centres unmarked), for which the “hERG current change (%, negative = inhibition) at 1uM” value is listed as 0.335%.

`N#C/C(=C\Nc1ccc(F)c(Cl)c1)C(=O)C1CC1`: the “hERG current change (%, negative = inhibition) at 1uM” value was 12.4%. Regarding `O=C(Nc1ccc(Cl)cc1C(=O)c1ccccc1Cl)c1ccco1`, the “hERG current change (%, negative = inhibition) at 1uM” value stood at 9.76%.

As for `Cc1nc2cncc(Br)c2n1C`, the “hERG current change (%, negative = inhibition) at 1uM” value was found to be 4.07%. For `COc1cc(C(=O)NC(C)C2CC3CCC2C3)ccc1OC(F)F` (centres unmarked) the value was 4.12%; for `COC(=O)[C@H]1C[C@@H]1[C@H](N)c1ccccc1.Cl`, 7.65%. In the case of `O=C(Nc1ccccc1C(=O)O)c1ccc(N2C(=O)C3CC=CCC3C2=O)cc1` (centres unmarked) it was 18%.

As for `Cc1ccccc1C1CC(c2cccs2)=NN1S(C)(=O)=O` (centres unmarked), the “hERG current change (%, negative = inhibition) at 1uM” value worked out at 8.14%. On to `Nn1c(SCc2c(F)cccc2F)nnc1-c1ccccn1`, for which the “hERG current change (%, negative = inhibition) at 1uM” value worked out at 9.31%. For `COCCCNC(=O)c1cccc2c(=O)c(C)c(-c3ccccc3)oc12` the value was 6.57%; for `O=C(NCCN1CCN(C(=O)c2cccc(Br)c2)CC1)C(=O)NCc1ccccc1`, -11.2%.

As for `O=C(CN1CCN(Cc2ccccc2Cl)C1=O)NCc1ccco1`, the “hERG current change (%, negative = inhibition) at 1uM” value stood at 4.94%. For `CCOC(=O)C1C(=O)CC(C)(O)C(C(=O)OCC)C1c1ccc(Br)cc1` (centres unmarked) the value was -2.02%; for `CCNC(=S)N1CCCC(C(N)=O)C1` (centres unmarked), 12.3%; for `CC(C)[C@H](NC(=O)c1c(F)cccc1F)C(=O)N1CCN(c2ccc(F)cc2)CC1`, -6.13%. In the case of `Cc1ccc(-c2nnn(CC(=O)N(Cc3ccccc3)C(C(=O)NC(C)(C)C)c3ccncc3)n2)o1` (centres unmarked) it was 1.4%; in that of `COc1ccc(S(=O)(=O)NCCc2cc3ccc(C)c(C)c3[nH]c2=O)cc1`, 15.5%. In the case of `COCc1cc(N2CCOCC2)nc(-c2ccccc2)n1`, the “hERG current change (%, negative = inhibition) at 1uM” value stood at 16.1%. For `Cc1cc(C)cc(NC(=O)Cn2ncn3c(cc4ccccc43)c2=O)c1` the value was 3.78%. Take `Cc1ccc(CN(C)C(=O)CCc2c[nH]c3ccccc23)o1`: the “hERG current change (%, negative = inhibition) at 1uM” value turned out to be 4.2%.

On to `O=C(CN1CCN(c2ccccn2)CC1)Nc1ccc(F)cc1.O=C(O)C(=O)O`, for which the “hERG current change (%, negative = inhibition) at 1uM” value is -23.4%. For the molecule `CCOc1ncccc1C(=O)N1CCN(S(=O)(=O)c2ccc(Br)cc2Cl)CC1`, the “hERG current change (%, negative = inhibition) at 1uM” value amounted to 6.01%. In the case of `N[C@@H](Cc1ccccc1)C(=O)N1C[C@H]2C[C@@H](C1)c1cccc(=O)n1C2`, the “hERG current change (%, negative = inhibition) at 1uM” value stood at 12.1%. As for `COc1cccc(C2(O)CC(C(F)(F)F)=NN2C(=O)c2ccccn2)c1` (centres unmarked), the “hERG current change (%, negative = inhibition) at 1uM” value is 9.25%. With `Cc1cccc(C(=O)NNS(=O)(=O)c2ccccc2)c1O`, the “hERG current change (%, negative = inhibition) at 1uM” value is on record as 9.23%. For `CN1/C(=C\C(=O)Nc2cccnc2)c2ccccc2CC1(C)C` the value was 6.92%; for `Nc1nc(=S)n(-c2ccccc2)[nH]1`, 12.5%. In the case of `CC(C)(C)[C@H]1C=C(C(N)=O)O[C@@H](OCc2ccc(CO)cc2)C1`, the “hERG current change (%, negative = inhibition) at 1uM” value was -0.154%. For `CCc1ccccc1NC(=S)N(CCc1ccncc1)C(C)C` the value was -0.188%; for `Cc1ncc(CO)c2c1Oc1nc(-c3ccccc3)nc(SCC(=O)Nc3cccc(O)c3)c1C2`, 9.85%; for `CCOC(=O)[C@H]1CCC[C@@H](NS(=O)(=O)c2ccc(NC(C)=O)cc2)C1`, 8.9%. In the case of `COc1ccc(-n2c3c(cc(C(=O)NCc4ccco4)c2=O)C(=O)CC(C)(C)C3)cc1`, the “hERG current change (%, negative = inhibition) at 1uM” value is -5.72%.

With `CS(=O)(=O)Nc1cccc2cccnc12`, the “hERG current change (%, negative = inhibition) at 1uM” value came out at 10.4%. For `C=CCNC(=S)NN=C1CCC(c2ccccc2)CC1` (centres unmarked) the value was 13.1%; for `O=C(NCc1ccccn1)C(=O)NCC1OCCN1S(=O)(=O)c1ccc(F)cc1` (centres unmarked), 8.4%. In the case of `CCN(CC)c1ccc(/C=N/NC(=O)CNC(=O)c2ccc3c(c2)OCCO3)cc1` it was 12.7%. In the case of `COc1ccc(C(=O)CCC(=O)N2CCN(c3ccc([N+](=O)[O-])cc3)CC2)cc1` it was -28.4%; in that of `Cc1sc(NC(=O)C2C3CCC(O3)C2C(=O)O)nc1-c1ccc(CC(C)C)cc1` (centres unmarked), 3.75%. Take `COc1ccc(C2c3c(ccc4ccccc34)Oc3ncn4nc(-c5ccco5)nc4c32)cc1` (centres unmarked): the “hERG current change (%, negative = inhibition) at 1uM” value was determined as 4.06%.

On to `COc1ccc(Cn2nnnc2CN2CCOCC2)cc1`, for which the “hERG current change (%, negative = inhibition) at 1uM” value is on record as -4.33%. In the case of `Cc1ccc(CNC(=O)c2nn(C)c(C)c2[N+](=O)[O-])cc1` it was 5.74%. Take `CN(CC(=O)Nc1cc(S(=O)(=O)N2CCCCCC2)ccc1Cl)Cc1ccc2c(c1)OCO2`: the “hERG current change (%, negative = inhibition) at 1uM” value is given as 15.5%.

`O=C(CSc1nnc(CNC(=O)c2cccc(C(F)(F)F)c2)o1)NCc1ccco1`: the “hERG current change (%, negative = inhibition) at 1uM” value is given as 10.4%. For `COc1ccc(/C=N/n2cnnc2SCCO)cc1OC` the value was 7.32%; for `CN(C)CCC(=O)c1ccc2c(c1)OCO2.Cl`, 16.3%.

Consider `COc1ccc(CN2CCNC(=O)C2CC(=O)N(C)Cc2ccon2)c(OC)c1` (centres unmarked), for which the “hERG current change (%, negative = inhibition) at 1uM” value is recorded as 8.87%.

`CC1CCCCN1C(=O)CN1CCN(S(=O)(=O)c2ccc(Br)cc2Cl)CC1` (centres unmarked): the “hERG current change (%, negative = inhibition) at 1uM” value was -2.79%.

For the molecule `COCCNC(=O)C1CC(=O)N(c2ccc(F)c(Cl)c2)C1` (centres unmarked), the “hERG current change (%, negative = inhibition) at 1uM” value was found to be 7.08%. In the case of `COc1ccccc1/C=C/C(=O)NNC(=O)c1cccs1` it was 11.1%; in that of `Cc1cc(C(F)(F)F)nc(SCC(=O)NC2CC3CCC2C3)n1` (centres unmarked), -2.17%.

Consider `CC(Oc1ccc(Cl)cc1Cl)C(=O)NNC(=O)C(=O)N1CCCCC1` (centres unmarked), for which the “hERG current change (%, negative = inhibition) at 1uM” value is reported as 6.63%. In the case of `COC1CC(OC2CCC3(C)C(CCC4C3CCC3(C)C(C5=CC(=O)OC5)C(OC(C)=O)CC43O)C2)OC(C)C1OC1OC(COC2OC(CO)C(O)C(O)C2O)C(O)C(O)C1O` (centres unmarked) it was 13.8%. Take `COc1ccc(SCCc2nnc(-c3ccccc3)o2)cc1`: the “hERG current change (%, negative = inhibition) at 1uM” value is 13.9%.

For the molecule `O=C(NCC(c1ccco1)N1CCN(c2ccccc2F)CC1)C(=O)NC1CCCC1` (centres unmarked), the “hERG current change (%, negative = inhibition) at 1uM” value turned out to be 5.22%. Regarding `O=C1CCCC(=O)N1c1ccc(N2CCOCC2)c([N+](=O)[O-])c1`, the “hERG current change (%, negative = inhibition) at 1uM” value was found to be 10.5%.

(Values after article PMC4336329 (PLoS ONE, 2015).)
